# Publication PMC12136788
# Some of the results follow.
# T1: UNK ZnF1-6 (called full-length) (human, UniProt Q9C0B0 30-357)
# T1 sequence: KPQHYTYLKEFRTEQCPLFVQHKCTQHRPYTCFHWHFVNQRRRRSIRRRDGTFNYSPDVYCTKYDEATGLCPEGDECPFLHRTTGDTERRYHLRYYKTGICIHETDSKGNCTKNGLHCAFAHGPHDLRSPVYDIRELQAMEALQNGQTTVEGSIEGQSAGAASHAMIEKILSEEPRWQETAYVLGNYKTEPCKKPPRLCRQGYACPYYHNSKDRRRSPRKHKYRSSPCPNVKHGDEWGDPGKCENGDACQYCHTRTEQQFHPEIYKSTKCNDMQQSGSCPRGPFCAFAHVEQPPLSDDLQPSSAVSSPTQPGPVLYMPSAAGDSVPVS
# B1: chr2:121339258:121339359:-|3pUTR|ENSG00000074054|unk|total|mutant (ssRNA)
# RNA: GGGAGUUCUACAGUCCGACGAUCUUUUGAGAUUAAUUCUAAUAACGUAUUUGCUAUUGCAGUGCAGAGCCCACUGCAACUGCCCGGACUGAAAGCAGAGGCUGGGUGCCAGAGCACGUGAUUCUUAACAUCAUUUCCACAGACCAACAGAGGAUUGAGCAUCA
# B2: ENSG00000136731:stop:overlap|stop_codon|ENSG00000136731|stop_codon|NA|stop_codon (ssRNA)
# RNA: GGGAGUUCUACAGUCCGACGAUCCCAUUACAACCUCUCUUACAACAAAAUGGUUUUCCACUCCAUUGUUGUUAGAAGCCAGAUAGCAGCUGAUGAACCUCCACCAGAAGGAUGUAAUUCGUUUUUUUCAGUGCAUGGAAAGAACAACAGAGGAUUGAGCAUCA
# B3: ENSG00000124766:be:win_3201|3pUTR|ENSG00000124766|bound_else_gene|NA|bound_elsewhere_windowed (ssRNA)
# RNA: GGGAGUUCUACAGUCCGACGAUCUAAAUCGCUGUUUGGAUUUCCUGAUUUUAUAACAGGGCGGCUGGUUAAUAUCUCACACAGUUUAAAAAAUCAGCCCCUAAUUUCUCCAUGUUUACACUUCAAUCUGCAGGCUUCUUAAAGCAACAGAGGAUUGAGCAUCA
# B4: chr6:73641827:73641929:-|CDS|ENSG00000119899|unk|total|mutant (ssRNA)
# RNA: GGGAGUUCUACAGUCCGACGAUCGAGAAAAGAGCUGCUCUGUGAAGGUCUUAAAGGAUUGUUUUAUUCUUUUCUGAUUUUUGCCGGGUAAGAAGUACCAAUGGGAUGCAGAAACUCAAGGAUGGAUUCUCGGUUCCUUUUUUUCAACAGAGGAUUGAGCAUCA
# B5: chr2:128193554:128193655:+|3pUTR|ENSG00000136731|msi1|FALSE|unique (ssRNA)
# RNA: GGGAGUUCUACAGUCCGACGAUCCCUUGUCAAGGCUCUGCCUGAAUGAGUUUUCAUCUGAUUGUGGGGACCAAGUCCCUGAGUAGAGGGCCAAGAGCUAGGGACAGGGGGAAGAGACUGGCCCAGGUGGUAGGGAGGAAAGAACAACAGAGGAUUGAGCAUCA
# B6: chr8:23842113:23842214:-|3pUTR|ENSG00000159167|msi1|FALSE|unique (ssRNA)
# RNA: GGGAGUUCUACAGUCCGACGAUCACUUUAGACAUUUUUGUGCCAUUAUAUUUGCAUUAUGUAUUUAUAAUUUAAAUGAUAUUUAGGUUUUUGGCUGAGUACUGGAAUAAACAGUGAGCAUAUCUGGUAUAUGUCAUUAUUUAUCAACAGAGGAUUGAGCAUCA
# B7: chr5:136063637:136063821:+|3pUTR|ENSG00000120708|msi1|total|mutant (ssRNA)
# RNA: GGGAGUUCUACAGUCCGACGAUCUGUCAAAUGUGUCUCACAUCUACACGUGGCUUGGAGGCUUUUAUGGGGCCCUGUCCAGGCCGAAAAGAAAUGGUAUGCCGAGCUCCGAUUUCCCUAUUGUGACAGAGCCAUGGUGUGUUUCAACAGAGGAUUGAGCAUCA
# B8: chr12:62383855:62383964:+|CDS|ENSG00000135655|unk|FALSE|unique (ssRNA)
# RNA: GGGAGUUCUACAGUCCGACGAUCGGUAGGACGUUUUGCACCUCAGUUCUCUGGAUAUCAGCAGCAAGACUGUCAAGAACUGUUAGCUUUCCUAUUAGAUGGAUUACAUGAGGAUUUGAAUAGAAUUAGGAAAAAACCAUAUAUCAACAGAGGAUUGAGCAUCA
# B9: chrX:47636291:47636398:-|3pUTR|ENSG00000126767|unk|total|mutant (ssRNA)
# RNA: GGGAGUUCUACAGUCCGACGAUCGCCUGCCCUUGGGGAGAUGAGGGAGCCCUGUCUGCGUUUUUGGAUGUGAGCCGAAGAGUCCGUUUGUUUUGUUUUAUUAUUCCUGGCCAUACUCAGGGGUCCAGGAAGAAUUUGUACCAUCAACAGAGGAUUGAGCAUCA
# B10: chr1:151291320:151291421:+|3pUTR|ENSG00000143373|unk|total|mutant (ssRNA)
# RNA: GGGAGUUCUACAGUCCGACGAUCAAUAUUUUGUUAAUUCCUGUCUCUCCAACCUGAAGAAGAAGAGCAUUUGAGGAUUAUUCCCGUUAUUUGCAACCUCCCUUUGGGUUUGGCCCUGGAGUCCCCGCCGAGUGGACCCUCCAUCAACAGAGGAUUGAGCAUCA
# B11: chr19:32875924:32879378:-|three_prime_utr|ENSG00000121289|control|control|control (ssRNA)
# RNA: GGGAGUUCUACAGUCCGACGAUCACCUGCUGGACGGCUGCGAUGUCUGCUCCUAUGACCUGAAGUCUCAUGCCCCCACCUGCUAGAAUCUGCGGGAGCCCGUGGUGUAGCCUCCUCUGGCCUGAAAGGUCUGCCUCACACAGGCAACAGAGGAUUGAGCAUCA
# B12: chr11:123805410:123806349:-|CDS|ENSG00000196099|control|control|control (ssRNA)
# RNA: GGGAGUUCUACAGUCCGACGAUCGUGGGAGCCUUCCUGUCUGUGUUGUUUCCAACCAUUGUAGUGACAAGGCUACCUUACUGUAGGAAAGAAAUUAAUCAUUUCUUCUGUGACAUUGCCCCUCUUCUUCAGGUGGCCUGUAUACAACAGAGGAUUGAGCAUCA
# B13: chr11:118396625:118396726:+|3pUTR|ENSG00000110344|msi1|total|mutant (ssRNA)
# RNA: GGGAGUUCUACAGUCCGACGAUCAACUUGACAAUGCUCCCCUGGCUUGCAGGAAAUUAUACUUAUUACCGCAUCACCAAGUUCCGAAAUCAUCACUAAUUUUCACCCUCUGUUGUCUCUUCAUAUUCUUCUUCCUUUUCCUAACAACAGAGGAUUGAGCAUCA
# B14: chr2:27433287:27433389:+|CDS|ENSG00000115216|unk|total|mutant (ssRNA)
# RNA: GGGAGUUCUACAGUCCGACGAUCUUCCAGCAUGUCGGAGGGGGAGUCCCAGACAGUACUCCGCAGUGGCUCAGACCCAAAGGCCGAAUCCUCAUCUUCAGCUCCUGGCCUGACAUCAGUGUCACCUCCUGUGACCUCCACAACCAACAGAGGAUUGAGCAUCA
# Biological target: T1, UNK ZnF1-6 (called full-length)
# Assay: nsRBNS (natural sequence RNA bind-n-seq); RBNS binding buffer (assumed for nsRBNS): 25 mM Tris pH 7.5, 150 mM KCl, 3 mM MgCl2, 0.01% Triton X-100, 500 ug/ml BSA, 20 U/ml SUPERase-In, 4 C; UNK is unkempt and MSI1 is Musashi-1; names of the RNAs are library labels; protein concentration not given here; high values mean tight binding
row,Binder,binding signal [enrichment R]
1,B1,0.852
2,B2,0.651
3,B3,0.53
4,B4,0.386
5,B5,0.836
6,B6,3.25
7,B7,0.676
8,B8,5.69
9,B9,0.892
10,B10,0.725
11,B11,0.849
12,B12,0.594
13,B13,0.979
14,B14,0.734
